Data on 58 compounds can be found in PubChem BioAssay AID463173 (ICCB-Longwood Screening Facility, Harvard Medical School, 2010).

Hit rate of the full screen: of about 52,000 compounds, about 1,700 (3.3%) were called active. Cut-off read from the data, not from the text of the source: active = survival mostly below about 52% (no sharp cut-off); inactive = mostly above about 56%. Some of the results follow.

The subject of this assay is Wild type. Briefly: growth inhibition of S. aureus wild type versus tarO mutant, primary screen, teichoic acid synthesis inhibitors, RN4220, OD600 (AID 463173). To be noted: S. aureus RN4220 wild type/DeltatarO growth, OD600, 18 h, active compounds read low, screened at 18.75 µg/mL (by protocol).
`O=C(c1ccco1)c1cn(CCOc2ccc(Cl)cc2)c2ccccc12`: the survival is inactive: 68%. On to `CCc1ccc(C2C(C(=O)Nc3ccccc3)=C(C)Nc3nc(SCC(=O)c4ccc(C)cc4)nn32)cc1` (stereo not drawn), for which the survival is inactive: 66%. Take `CC(=O)c1ccc(NC(=O)Cn2c3ncccc3c(=O)n2-c2ccc(C)cc2)cc1`: the survival is inactive: 117%. For `COc1ccc(NC(=O)c2cnc(SCC(=O)Nc3nc4ccc(C)cc4s3)n(C)c2=O)cc1`, the survival was inactive: 81%. On to `COc1ccc(C(CNC(=O)c2ccc(C)cc2)N2CCOCC2)cc1` (stereo not drawn), for which the survival is inactive: 92%. As to `O=C(c1cccs1)N1CCCc2cc(NS(=O)(=O)c3ccc(Cl)cc3)ccc21`, the survival is inactive: 78%.

Regarding `O=C(CSc1nccn1Cc1ccccc1)NC1CCCC1`, the survival was inactive: 88%. Regarding `O=C(NC1CCCC1)C(c1ccccc1)N(C(=O)c1ccco1)C1CCCC1` (stereo not drawn), the survival is inactive: 88%. Turning to `O=C(NCCc1ccccc1)C(=O)NCC(c1cccnc1)N1CCN(c2ccc(F)cc2)CC1` (stereo not drawn), the survival is inactive: 109%. For `CCC(=O)N1CCc2cc(CNC(=O)Nc3ccc(OC)cc3OC)ccc21` the value was inactive: 70%; for `CCC(C)N1CCN(C2CCCCC2)CC1` (stereo not drawn), inactive: 108%; for `COc1ccccc1-c1cc(C(F)(F)F)nc(S(=O)(=O)CCCC(=O)Nc2cc(Br)ccc2O)n1`, inactive: 41%. As for `c1ccc(CNCC2COc3ccccc3O2)cc1` (stereo not drawn), the survival was inactive: 102%. On to `Cc1cccc(-c2noc(-c3ccc(N4CCCC4)c([N+](=O)[O-])c3)n2)c1`, for which the survival was inactive: 81%. In the case of `O=C(NCc1ccco1)C1C2C3CCC(C3)C12` (stereo not drawn), the survival was inactive: 100%. Consider `CCN(C(=O)CN(C)S(=O)(=O)c1ccc2c(c1)n(C)c(=O)c(=O)n2C)c1cccc(C)c1`, for which the survival is inactive: 113%.

`COc1ccc(NC(=O)C2CCN(S(=O)(=O)c3c(C)noc3/C=C/c3ccco3)CC2)cc1`: the survival is inactive: 128%.

With `CC(C)OC(=O)c1cc(=O)[nH]c2ccccc12`, the survival is inactive: 102%. Regarding `CN(C)c1ccc(C(CNS(=O)(=O)c2cc(F)ccc2F)N2CCOCC2)cc1` (stereo not drawn), the survival is inactive: 121%. Take `Cc1cc(C)c(Cn2c(=O)n(CCCCCC(=O)NCc3ccc4c(c3)OCO4)c(=O)c3sccc32)c(C)c1`: the survival is inactive: 87%. Consider `c1ccc2oc(CCc3nc4ccccc4o3)nc2c1`, for which the survival is inactive: 112%. For `CCN(CC)C(=O)c1sc(NC(=O)C2c3ccccc3Oc3ccccc32)c(C(=O)OC(C)C)c1C` the value was active: 8%; for `COc1ccc(NS(=O)(=O)c2ccc3[nH]c4c(c3c2)CCCC4)c(OC)c1`, inactive: 99%; for `CCOc1ccc(Nc2nc3ccccc3c3nnc(CC)n23)cc1`, inactive: 80%.

As to `COc1cccc(NC(=O)Cn2c(=O)n(-c3cccc(OC)c3)c(=O)c3c4c(sc32)CCCC4)c1`, the survival is inactive: 89%. In the case of `O=C(O)C1CC(=O)N(c2cccc(Cl)c2)C1` (stereo not drawn), the survival is inactive: 113%. For `Cc1ccc(CN(C(=O)c2ccccc2Br)C2CCS(=O)(=O)C2)o1` (stereo not drawn) the value was inactive: 88%. For `O=C(NCc1ccc(Cl)cc1)C(=O)Nc1cccc(Br)c1`, the survival is inactive: 150%.

On to `O=C(Nc1ccc2oc(-c3ccc4ccccc4c3)nc2c1)c1cc(Br)ccc1Cl`, for which the survival was inactive: 96%. As for `CC1CCC(NC(=O)c2ccc3c(c2)N(Cc2cccc(Cl)c2)C(=O)c2ccccc2S3=O)CC1` (stereo not drawn), the survival is inactive: 19%. As to `COc1ccc(OCc2nc3ccccc3n2C(C)C)cc1`, the survival was inactive: 102%.

Regarding `Cn1c(=O)c2c(SCC(=O)NCc3ccco3)nc(-c3ccccc3F)nc2n(C)c1=O`, the survival is inactive: 92%. Take `COc1ccc(NC(=O)CC2C(=O)N(c3ccccc3)C(=O)N2Cc2cccnc2)cc1` (stereo not drawn): the survival was inactive: 87%. In the case of `CCOc1ccccc1NC(=O)COc1cccc2c(=O)n(CCOC)ccc12`, the survival is inactive: 79%.

For the compound `O=C(O)CNC(=O)c1cncc(O)c1`, the survival is inactive: 95%. For `Cc1ccc(NC(=O)Nc2cc3c(cc2N2CCCCC2)n(C)c(=O)n3C)cc1Cl` the value was inactive: 131%; for `CCC1CCCCN1S(=O)(=O)c1ccc(N2CCCCS2(=O)=O)cc1` (stereo not drawn), inactive: 83%; for `COc1ccc(-c2[nH]ncc2C(=O)NCc2cccc(F)c2)cc1`, inactive: 78%. With `COc1ccc(C2=NN(C(C)=O)C(c3cn(-c4ccccc4)nc3-c3cccs3)C2)cc1` (stereo not drawn), the survival was inactive: 127%. `CC(=O)Nc1c(C(=O)Nc2cccc(C)c2)nnn1-c1ccc(C)cc1`: the survival was inactive: 103%. The figure for `CCOC(=O)c1ccc(NC(=O)c2c(C)oc3nc(C)nc(N4CCCC4)c23)cc1` is inactive: 78%. For `O=C(CCCc1nc(-c2ccco2)no1)Nc1ccccc1[N+](=O)[O-]`, the survival is inactive: 81%. For `COc1cccc(-n2c(=O)c3c4c(sc3n(Cc3ccc(F)cc3Cl)c2=O)CCCC4)c1` the value was inactive: 134%; for `O=C(O)C1CCCCC1C(=O)Nc1cccc(C(=O)N2CCCCC2)c1` (stereo not drawn), inactive: 103%; for `Cc1cc(N2CCN(C)CC2)nc2ccc(NC(=O)Nc3ccccc3)cc12`, inactive: 65%. The figure for `O=C(CNS(=O)(=O)c1ccccc1)Nc1ccc2c(c1)OCO2` is inactive: 117%; for `CCc1ccc(NC(=O)CC(c2ccc(C)cc2)N2Cc3ccccc3C2=O)cc1` (stereo not drawn) it is inactive: 121%. In the case of `O=C1C2CCCN2C(=S)N1C1CCCCC1` (stereo not drawn), the survival was inactive: 101%. `COCCNC(=O)c1ccc2nc(CCc3ccccc3)oc2c1`: the survival is inactive: 118%.

As for `Cc1ccc(-n2nc(-c3ccc(F)cc3)c3cnc4cc5c(cc4c32)OCO5)cc1C`, the survival was inactive: 81%. Regarding `CCc1ccc(-c2cc(C)no2)cc1S(=O)(=O)N1CCN(c2cccc(Cl)c2)CC1`, the survival is inactive: 72%. The figure for `Cc1c(C(=O)Nc2ccc(Br)cc2F)oc2ccc(S(=O)(=O)N3CCC4(CC3)OCCO4)cc12` is inactive: 71%; for `COc1ccc(NC(=O)c2oc3ccc(S(=O)(=O)N(C)C4CCCCC4)cc3c2C)cc1Cl` it is inactive: 68%.

`O=C(CCC1CCCCC1)Nc1ncn[nH]1`: the survival was inactive: 114%. Regarding `Cc1ccc(Cl)cc1N1CCN(C(=O)CCSCc2ccccc2F)CC1`, the survival is inactive: 85%. As to `Cc1ccc(CCNC(=O)c2sc3ncccc3c2-n2c(C)ccc2C)cc1`, the survival was inactive: 75%. For `CC1CCCCN1c1c(S(=O)(=O)c2ccc(Cl)cc2)cnc2ccccc12` (stereo not drawn) the value was active: 3%; for `CCC(=O)Nc1ccc(CC)cc1-c1nc2ccccc2n(CC(=O)Nc2cccc(OC)c2)c1=O`, inactive: 69%.
